Laboratory results as given in PubChem BioAssay AID588855 (National Center for Advancing Translational Sciences (NCATS), 2011).
Among all 410,000 compounds or so, about 5,000 (1.2%) were called active. The inconclusive results got no clear call from the source; some entries with a clear call stand among them for comparison. The call rests on the fitted dose curve; in most records, active means well fitted inhibition curve with a large enough effect; inconclusive means small, poorly fitted or top-dose-only effect; inactive means no such curve, though single readings can be large or run the other way. Potencies of inconclusive entries are doubtful fits and often do not repeat.

Assay: qHTS for Inhibitors of TGF-b; further: nearly all actives have a fitted effect of over 65% in size
Details: HepG2 CAGA-GFP TGF-b/SMAD3 reporter, GFP fluorescence, 18 h, TGF-beta stimulated, 500 pg/mL final; series mostly up to 46.1 µM; activity, negative = inhibition: at the top concentration
Summary of the method: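 GFP signal (ex488/em500-530) from TGF-beta-stimulated HEPG2 CAGA-GFP cells, 500 pg/mL final, 18 h at 37 degrees C in DMEM plus 1% FBS, normalized to unstimulated and DMSO-stimulated controls.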
On the % scale 0 is the no-effect control and ±100 the full control effect; potency means the concentration at half of the fitted maximal effect; tags describe the fitted curve by direction and shape.

| SMILES | Potency | activity, negative = inhibition |
| --- | --- | --- |
| COc1ccc(NC(=O)c2nc[nH]c2C(=O)N[C@H](C)c2ccccc2)cc1 | inconclusive: 14.1 µM [inhibitor, single point] | – |
| CCc1nc2ccc(C(=O)N3CCN(S(=O)(=O)CC)CC3)cn2c1N(CC)Cc1cccc(Br)c1 | inconclusive: 17.8 µM [inhibitor, single point] | – |
| COc1cccc(/C=N/Nc2nc(-c3cccnc3)nc3ccccc23)c1 | inconclusive: 28.2 µM [inhibitor, single point] | – |
| CCN(CC)c1ccc(/C=N/NC(=S)NCc2ccco2)cc1 | inconclusive: 15.8 µM [inhibitor, single point] | – |
| O=C(Nc1ccccc1)N1CCn2c1nc1ccccc12 | inconclusive: 35.5 µM [inhibitor, single point] | – |
| Cc1ccc(S(=O)(=O)N2[C@@H](c3ccc(Cl)cc3)C(C(=O)O)=CC[C@H]2c2ccc(Cl)cc2)cc1 | inconclusive: 17.8 µM [inhibitor, single point] | – |
| CC(=O)Nc1ccccc1N(CC(O)Cn1c2ccccc2c2ccccc21)S(=O)(=O)c1ccc(C)cc1 (configuration not stated) | inconclusive: 35.5 µM [inhibitor, partial curve, poor fit] | – |
| CC(C)Oc1ccc(Cl)cc1Nc1nc(NCCO)nc(N2CCCC2)n1 | inconclusive: 35.5 µM [inhibitor, single point] | – |
| O=C(O)c1ccc(Cl)cc1Nc1nc2cc(Cl)ccc2o1 | inconclusive: 15.8 µM [inhibitor, single point] | – |
| COc1ccc(/C=N/N2C(=O)CN(C(=O)c3ccccc3)C2c2ccc(OC)cc2)cc1 (configuration not stated) | – | inactive: 22.9% |
| CC(C)c1ccc2occ(CC(=O)N(Cc3ccc(F)cc3)C3CCS(=O)(=O)C3)c2c1 (configuration not stated) | inconclusive: 15.8 µM [inhibitor, single point] | – |
| COc1ccc(CCNC(=O)c2ccc3c(c2)ncn3-c2ccc(C(C)C)cc2)cc1OC | inconclusive: 10 µM [inhibitor, partial curve, poor fit] | – |
| CCCC(C)c1nnc(NC(=O)c2cc(C(=O)OC)cc([N+](=O)[O-])c2)s1 (configuration not stated) | inconclusive: 0.794 µM [inhibitor, full curve] | – |
| O=C(c1ccc(Cl)c(Cl)c1)N1CCC(=O)N(C(COCc2ccc(Cl)cc2)Cc2ccccc2)CC1 (configuration not stated) | active: 10 µM | – |
| CC(=O)N1N=C(c2cccs2)CC1c1ccc(Br)cc1 (configuration not stated) | inconclusive: 22.4 µM [inhibitor, single point] | – |
| Cn1c2ccccc2c2cnn(CC(=O)NCCCN3CCN(c4ccccc4F)CC3)c(=O)c21 | inconclusive: 1.26 µM [inhibitor, full curve, poor fit] | – |
| COc1ccc(NS(=O)(=O)c2ccc3[nH]c4c(c3c2)CCCCC4)cc1 | inconclusive: 35.5 µM [inhibitor, single point] | – |
| S=c1[nH]nc(Cc2ccc(Cl)cc2)o1 | – | inactive: -8.12% |
| CCOc1ccc(C(C(=O)NCC2CCCO2)N(C(=O)c2snc(C(N)=O)c2N)c2ccccc2F)cc1 (configuration not stated) | – | inactive: 32.1% |
| CC(=O)Nc1ccc(C(=O)OCc2ccc(Br)cc2)cc1 | inconclusive: 35.5 µM [inhibitor, single point] | – |
| C#CCN(C[C@H]1[C@H](OC(=O)NCc2ccc(OC)c(OC)c2)[C@H](OC(=O)NCc2ccc(OC)c(OC)c2)C[C@H]2C(=O)N(c3ccccc3)C(=O)[C@@H]12)S(=O)(=O)c1ccc(C)cc1 | – | inactive: 0.739% |
| COc1cc(C2NC(=O)C(C#N)=C(Nc3cccc(C)c3)S2)ccc1O (configuration not stated) | inconclusive: 22.4 µM [inhibitor, single point] | – |
| COC(=O)c1sc2nc(SCc3cccc(Cl)c3)n(N)c(=O)c2c1C | inconclusive: 4.47 µM [inhibitor, partial curve, poor fit] | – |

| SMILES | Potency | activity, negative = inhibition |
| --- | --- | --- |
| Cc1cccc(C(=O)N2CCc3cc(CNS(=O)(=O)c4ccc(F)c(Cl)c4)ccc32)c1 | – | inactive: -11.5% |
| CC[C@@H](C)CN1C(=O)N[C@@H](c2ccccc2)C(C(C)=O)=C1C | – | inactive: -1.72% |
| O=C(N/N=C\c1cccs1)c1ccccc1-n1cccc1 | – | inactive: 7.77% |
| COc1ccc(C(N)c2csc(Nc3cc(Oc4ccccc4)ncn3)n2)cc1 (configuration not stated) | inconclusive: 15.8 µM [inhibitor, single point] | – |
| CCc1ccccc1NC(=O)Cn1ccn(Cc2ccccc2)c(=O)c1=O | – | inactive: 7.17% |
| CCN(CC)S(=O)(=O)c1ccc2c(c1)nc(SCC(=O)N1CCOCC1)n2-c1ccccc1OC | inconclusive: 6.31 µM [inhibitor, single point] | – |
| COc1ccc(-c2coc(CCC(=O)N3CCN(c4cc(C)ccc4C)CC3)n2)cc1 | inconclusive: 8.91 µM [inhibitor, partial curve] | – |
| CCOC(=O)CSc1cc(-c2ccccc2)nc2ncnn12 | – | inactive: -24.9% |
| Cc1ccc(S(=O)(=O)N2CCCCC2)cc1NCC(=O)Nc1ccc(Br)cc1F | inconclusive: 22.4 µM [inhibitor, single point] | – |
| CCCCOc1ccc(CSCCN)cc1Cl | inconclusive: 35.5 µM [inhibitor, single point] | – |
| COc1ccc(C(=O)N2CCN(c3cccc(C)c3C)CC2)cc1S(=O)(=O)NC1CC1 | inconclusive: 35.5 µM [inhibitor, single point] | – |
| CCN(CC)S(=O)(=O)c1cc(C(=O)Nc2cc(C)on2)c(Cl)cc1Cl | – | inactive: -10.2% |
| OC(CNCc1ccccc1F)COc1cccc2ccccc12 (configuration not stated) | inconclusive: 25.1 µM [inhibitor, single point] | – |
| Cc1cccc(OCC(=O)OCC(=O)c2c(N)n(C)c(=O)n(C)c2=O)c1C | inconclusive: 35.5 µM [inhibitor, single point] | – |
| CCOC(=O)Nc1ccc2nc(Sc3ccc(Cl)cc3)sc2c1 | inconclusive: 5.62 µM [inhibitor, partial curve] | – |
| O=C(NC(=S)N1CCc2ccccc21)c1ccccc1Br | – | inactive: 8.65% |
| CC1CCN(C(=O)CSc2nc3ccccc3nc2Cc2ccccc2)CC1 | inconclusive: 20 µM [inhibitor, partial curve, poor fit] | – |
| COc1ccc2oc(C(=O)N(C)Cc3ccc(OC(F)F)cc3)c(C)c2c1 | inconclusive: 0.282 µM [inhibitor, full curve, poor fit] | – |
| CC(C)CC(=O)N/C(N)=N/c1nc2ccccc2s1 | inconclusive: 35.5 µM [inhibitor, single point] | – |
| COc1ccc2[nH]c(=O)c(CN(CCN(C)C)C(=O)NCc3ccccc3)cc2c1 | inconclusive: 15.8 µM [inhibitor, single point] | – |
| COc1ccccc1CNC(=O)c1ccc2c(c1)N(Cc1c(F)cccc1Cl)C(=O)CS2 | – | inactive: -1.11% |
| Cc1cc(C)cc(NC(=O)c2cc(S(=O)(=O)N3CCc4ccccc43)cn2C)c1 | inconclusive: 35.5 µM [inhibitor, single point] | – |
| O=S(=O)(Nc1cc(S(=O)(=O)N2CCOCC2)ccc1NCC1CCCO1)c1ccccc1 (configuration not stated) | – | inactive: 6.27% |

| SMILES | Potency | activity, negative = inhibition |
| --- | --- | --- |
| CC(C)c1ccc(NC(=O)Cn2cc(S(=O)(=O)Cc3ccccc3Cl)c3ccccc32)cc1 | inconclusive: 35.5 µM [inhibitor, single point] | – |
| Cc1ccc(-n2c(SCC(=O)c3ccccc3)nc3c([nH]c4ccccc43)c2=O)cc1 | – | inactive: 7.46% |
| COc1ccc(-c2csc3ncnc(Nc4cc(OC)cc(OC)c4)c23)cc1 | inconclusive: 35.5 µM [inhibitor, single point] | – |
| CCC(=O)N1CCc2cc(S(=O)(=O)Nc3cc(C)ccc3OC)ccc21 | inconclusive: 7.94 µM [inhibitor, partial curve] | – |
| COCCn1c(C)cc(C(=O)COC(=O)c2ccc3ncsc3c2)c1C | – | inactive: -2.76% |
| COc1ccc(/C=N/N(Cc2ccccc2)c2ccccc2)cc1O | inconclusive: 22.4 µM [inhibitor, single point] | – |
| c1cn2c(NC3CCCC3)c(-c3ccc(N4CCOCC4)cc3)nc2cn1 | – | inactive: -24.8% |
| Fc1ccc(CNC(=S)NCc2ccccc2)cc1 | inconclusive: 11.2 µM [inhibitor, partial curve] | – |
| Cc1ccc(NC(=O)CN(C)C(=O)Cn2ncc(Cl)c(Cl)c2=O)cc1 | inconclusive: 35.5 µM [inhibitor, single point] | – |
| CCN(CC)Cc1c(NC(=O)c2ccccc2)sc(C)c1C | – | inactive: -19.3% |
| CC[C@H](CO)Oc1cc(NCc2ccc(Cl)c(Cl)c2)c2ncn(C(C)C)c2c1 | inconclusive: 35.5 µM [inhibitor, single point] | – |
| Cc1nc(N2CCOCC2)nc(N2CCCCC2C)c1[N+](=O)[O-] (configuration not stated) | – | inactive: 7.15% |
| COc1cccc(NC(=O)Cn2cc(C(=O)c3ccco3)c3ccccc32)c1 | inconclusive: 11.2 µM [inhibitor, single point] | – |
| CN1CCN(C(=O)c2cc3c(c(-c4cccc(-c5cc6ccccc6o5)c4)n2)[C@@H](CCO)N(S(=O)C(C)(C)C)C3)CC1 (some centres not stated) | inconclusive: 35.5 µM [inhibitor, single point] | – |
| CCOC(=O)c1c(C)n(C)c2c(C)cc(O)c(OC(C)=O)c12 | – | inactive: 2.77% |
| O=C(NC(=S)N1CCCc2ccccc21)c1ccc([N+](=O)[O-])cc1 | inconclusive: 15.8 µM [inhibitor, partial curve, poor fit] | – |
| O=C(CCCc1c[nH]c2ccccc12)Nc1ccc2ccccc2c1 | inconclusive: 31.6 µM [inhibitor, single point] | – |
| Cc1nc(N)sc1C(=O)N/N=C/c1c[nH]c2ccccc12 | – | inactive: 39.6% |
| Nc1ccc(C23CC4CC(CC(CO)(C4)C2)C3)cc1 | – | inactive: -2.72% |
| CN(C)c1ccc(-c2ccnc3c2CC(C)(C(=O)NCCc2ccccc2)O3)cc1 (configuration not stated) | – | inactive: 62.6% |
| Cc1[nH]n(C(N)=S)c(=O)c1N=Nc1cccc(Cl)c1 | – | inactive: 2.36% |
